The list shows a part of the results.

T1: UNK ZnF1-3 (human, UniProt Q9C0B0 31-174)
T1 sequence: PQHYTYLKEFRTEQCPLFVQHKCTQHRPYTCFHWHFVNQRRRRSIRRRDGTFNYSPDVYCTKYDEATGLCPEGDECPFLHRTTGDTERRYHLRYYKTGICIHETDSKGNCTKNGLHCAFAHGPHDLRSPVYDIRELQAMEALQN

B1: chr19:21355511:21355512:+_ENSMUSG00000024750_ENSMUST00000025659|mus_mus|FALSE|FALSE (ssRNA)
RNA: GGGAGUUCUACAGUCCGACGAUCUUUGUAGCUUUCUUCCUGCUUCCAAAAGUCAUGUCGAAAUUAAGGUGAAGUUUGACUAUGGUAGUAGACUGCCAGUCCUUUUCUGGUGUACCAUUUUUUUUUUUUUAAGUACAGGCACAUCAACAGAGGAUUGAGCAUCA
B2: chr2:198351390:198351391:-_ENSG00000144381_ENST00000345042|hu_hu|hu_hu_hu_mus_False|1_78 (ssRNA)
RNA: GGGAGUUCUACAGUCCGACGAUCUCAUUCCCACCCUCCACAGAAAGGCUGCUUCUGUUCUCAUCUGUGGUGACACAGCGCUACAGUCCUGAUGCUCACAGAACAGUAGAGAUGCCUCAGUGAUUUAAGUUGAAAGCAGCAGUACAACAGAGGAUUGAGCAUCA
B3: chr13:21172813:21172814:+_ENSG00000032742_ENST00000351808|hu_hu|FALSE|FALSE (ssRNA)
RNA: GGGAGUUCUACAGUCCGACGAUCGAUAUUUCCCAUAUUCAUUUUCAAUAUUCCUGCAUUGCUAAACAUCUUAUUUUUGACUAUAACUUGAUAAGUGUUAAGUGCUUCGGCAUACAUUUCAUUAACUGAAUACUGACUGGCCAACAACAGAGGAUUGAGCAUCA
B4: chr10:33211235:33211236:-_ENSG00000150093_ENST00000302278|hu_mus|motif|central (ssRNA)
RNA: GGGAGUUCUACAGUCCGACGAUCCAGAAUGACUUCUGAAGAAAGAGAGUUGUAGGCAUCGAUGAUUAGCUGGAUCACAUUACGGGAGUUUCCAGACAGUGUGCCCACUGCUGACUUAGGAAUCAAAUUCUUCAAUUCCUUGUACAACAGAGGAUUGAGCAUCA
B5: chr6:85879240:85879241:+_ENSMUSG00000054226_ENSMUST00000067137|mus_mus|motif|central (ssRNA)
RNA: GGGAGUUCUACAGUCCGACGAUCUACUGCUAUACUCUUUUAGCUGCCUCUUGUAUAAAGUGGGCACAAAGACAUAUCGGCCGGAAAAGCAGCUAAGAGAGUUAAAUGAAUUGCUAUUUAUUGAGAUAGGAUUUGACAUAGUACCAACAGAGGAUUGAGCAUCA
B6: chr18:40848303:40848304:-_ENSG00000132872_ENST00000255224|hu_hu|FALSE|FALSE (ssRNA)
RNA: GGGAGUUCUACAGUCCGACGAUCAGUUGCAAAUAGUUUUACUCAACUUUUCACACUCAAAAACACUUUAAAUUUUAAAAGCUAAAAACUAUUUACAAAUUAUCCAUUUUAAUUUUAAAAAUGUUUGUUGUUGGUUUCAUUGUUCAACAGAGGAUUGAGCAUCA

The target of this assay is T1, UNK ZnF1-3. The assay can be described thus: nsRBNS (natural sequence RNA bind-n-seq); RBNS binding buffer (assumed for nsRBNS): 25 mM Tris pH 7.5, 150 mM KCl, 3 mM MgCl2, 0.01% Triton X-100, 500 ug/ml BSA, 20 U/ml SUPERase-In, 4 C; UNK is unkempt and MSI1 is Musashi-1; names of the RNAs are library labels; protein concentration not given here; high values mean tight binding.
With B1, the binding signal is 0.531 enrichment R.

Turning to B2, the binding signal was determined as 1.27 enrichment R.

With B3, the binding signal stood at 0.801 enrichment R.

On to B4, for which the binding signal was 0.682 enrichment R.

As for B5, the binding signal is 1.1 enrichment R.

Molecule B6 displayed a binding signal of 1.08 enrichment R.

For the origin of these results see publication PMC12136788.
